The values that follow come from PubChem BioAssay AID488969 (Vanderbilt High Throughput Screening Facility, 2010).

Over roughly 110,000 compounds, “z-score” has its median near -0.1; the highest 2% begin near 2. This is one part of the list. Calls of active or inactive are those of the source.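 How the source made its calls: active means z-score in the third read window above 3 or below -3; inactive means the rest.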

This assay concerns the target Metabotropic glutamate receptor 8 (Rattus norvegicus) (UniProt P70579). The experiment in a line: mGluR8 Gi/Go-coupled signaling modulation – cell-based, rat, thallium flux, HTS, primary screen (AID 488969). As to conditions: HEK293 rat mGluR8, GIRK (G protein-gated inwardly rectifying potassium channel) thallium flux, FluoZin2; at 10 µM; stronger effect = higher value; submaximal glutamate (EC20) added with thallium.
Sequence of UniProt P70579 (P70579 whole entry, looked up): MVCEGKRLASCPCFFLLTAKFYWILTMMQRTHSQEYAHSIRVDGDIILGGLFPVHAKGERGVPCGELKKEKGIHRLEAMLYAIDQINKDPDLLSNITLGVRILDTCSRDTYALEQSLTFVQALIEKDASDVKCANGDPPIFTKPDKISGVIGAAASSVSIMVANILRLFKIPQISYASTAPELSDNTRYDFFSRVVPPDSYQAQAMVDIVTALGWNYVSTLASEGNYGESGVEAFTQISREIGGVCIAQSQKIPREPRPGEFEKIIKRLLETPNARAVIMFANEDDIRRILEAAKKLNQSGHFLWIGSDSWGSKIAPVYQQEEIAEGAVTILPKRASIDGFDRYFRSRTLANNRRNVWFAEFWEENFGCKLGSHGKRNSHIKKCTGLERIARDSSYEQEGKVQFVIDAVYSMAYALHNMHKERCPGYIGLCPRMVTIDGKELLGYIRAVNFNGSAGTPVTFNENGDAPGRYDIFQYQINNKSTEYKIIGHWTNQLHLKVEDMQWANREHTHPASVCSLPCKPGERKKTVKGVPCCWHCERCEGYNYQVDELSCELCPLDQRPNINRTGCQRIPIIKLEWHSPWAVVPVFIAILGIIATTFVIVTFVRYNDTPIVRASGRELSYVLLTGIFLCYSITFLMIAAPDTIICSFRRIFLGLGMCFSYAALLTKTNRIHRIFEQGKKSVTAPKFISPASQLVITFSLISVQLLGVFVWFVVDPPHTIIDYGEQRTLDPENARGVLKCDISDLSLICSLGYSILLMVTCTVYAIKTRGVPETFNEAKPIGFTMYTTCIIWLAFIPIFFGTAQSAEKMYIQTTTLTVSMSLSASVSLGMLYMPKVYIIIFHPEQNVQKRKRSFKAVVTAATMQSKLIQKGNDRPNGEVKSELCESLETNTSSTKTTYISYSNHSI
Turning to `CC(=O)NS(=O)(=O)c1ccc(NC(=O)C2c3ccccc3Oc3ccccc32)cc1`, the z-score was -0.11.

In turn, `CCCn1c(SCC(=O)NCc2ccccc2)nnc1-c1ccncc1` registered a z-score of 0.519.

In the case of `CS(=O)(=O)N(CCc1ccccc1)CC(=O)Nc1ccc2c(c1)OCO2`, the z-score came out at 0.0607. In the case of `CCCCCOC(=O)C1=C(C)N(C)C(=O)NC1c1cc(Br)c(O)c(OC)c1` (stereo not drawn) it was -0.227; in that of `N#Cc1nc(-c2cccs2)oc1N1CCN(Cc2ccccc2)CC1`, -0.142.

`CC(=O)OC1CCC2(C)C(COc3ccc4ccc(=O)oc4c3)C(C)(O)CCC2C1(C)C` (stereo not drawn) registered a z-score of -0.078. `COc1ccc(-c2nc(-c3ccccc3)c(-c3cccs3)[nH]2)cc1OC` gave a z-score of 0.912. Under `COc1cccc(NC(=O)C2CCN(Cc3cnn(-c4ccccc4)c3-n3cccc3)CC2)c1` stands -0.463; under `Cc1cc(=O)[nH]c(N/N=C/c2ccc(Br)s2)n1`, -0.397. The molecule `NC(=O)C(c1ccccc1)C1CCCCC1` (stereo not drawn) returned a z-score of -0.0785. Under `CCN(CC)c1ccc(NC(=O)c2cccc(F)c2)c(C)c1` stands 1.07. Turning to `CC(=O)Nc1ccc(OCC(O)CN2CCN(c3cccc(Cl)c3)CC2)cc1` (stereo not drawn), the z-score was -0.0205. Under `COc1ccc2cc(C(c3nnnn3C3CCCC3)N3CCCCCC3)c3nnnn3c2c1` (stereo not drawn) stands 0.0233. As for `O=C(Nc1ccc(Cl)cc1)c1cccs1`, the z-score is -0.08.

Regarding `CCOc1ccc2nc(N/C(N)=N/C(=S)Nc3cccc(C)c3)nc(C)c2c1`, the z-score was -1.52. For the molecule `Cc1ccccc1Nc1nnc(SCC(=O)Nc2ccccc2[N+](=O)[O-])s1`, the z-score was -0.274. Under `Cc1c(Br)c([N+](=O)[O-])nn1CC(=O)NCc1ccccn1` stands -0.0483; under `CC1=NN(C(N)=S)C(=O)C1N=Nc1ccc(C)cc1C` (stereo not drawn), active: 13.2.

`Cc1ccc(-c2cc(C(=O)Nc3cc(C)ccc3C)[nH]n2)c(O)c1` gave a z-score of 0.576.

On to `CC(C)C(=O)NCCSc1c[nH]c2ccccc12`, for which the z-score is -0.143. Regarding `Oc1ccccc1-c1nc(NCc2ccco2)c2ccccc2n1`, the z-score was found to be 0.658. In the case of `O=C(NC(=S)Nc1ccccc1N1CCOCC1)c1ccc(-c2cccc(Cl)c2)o1` it was 0.758. Under `Nc1c(-c2cccs2)cnn1-c1nc(-c2ccc(Cl)cc2Cl)cs1` stands -0.0632; under `CCOC(=O)c1ccc(NC(=O)CSc2nnc(Cc3cccs3)n2C)cc1`, 0.666. Under `CC1(C)CC(=O)c2sc(NS(=O)(=O)Cc3ccccc3)nc2C1` stands -0.147; under `CCOC(=O)C1CCN(S(=O)(=O)c2ccc(OC)c(Cl)c2Cl)CC1`, 0.11; under `Cc1ccc(NC(=O)N(C2=NCC(C)S2)c2ccccc2)cc1` (stereo not drawn), -0.0682. `CCOc1ccccc1Nc1nc(-c2sc(NC(=O)c3ccccc3)nc2C)cs1`: the z-score was -0.0643. In the case of `Cc1cccc(OCC(=O)NNC(=O)Nc2cccc(Cl)c2)c1C` it was -0.193; in that of `Cc1cccc(NC(=O)c2ccc(OCC(=O)NCc3ccccc3)cc2)c1C`, -0.187; in that of `COc1ccccc1Cn1nnc2c(=O)[nH]c(C3CCN(C(=O)c4ccc(C)cc4)CC3)nc21`, 0.26. Take `Cc1ccc2nc(Cl)c(C3CC(c4cccs4)=NN3C(=O)CCC(=O)O)cc2c1` (stereo not drawn): the z-score is -0.475. With `CCOC(=O)Cn1c(=N)n(Cc2ccccc2F)c2ccccc21`, the z-score is active: 3.72. Under `CC(C)(C)C1CCc2onc(C(=O)Nc3cccc(O)c3)c2C1` (stereo not drawn) stands -0.218; under `CCc1ccc(Nc2nnc(SCC(=O)Nc3cccnc3Cl)s2)cc1`, -0.477; under `CC1CN(C(=O)c2ccc(CNS(=O)(=O)c3cccc(C(F)(F)F)c3)cc2)CC(C)O1` (stereo not drawn), 0.192. In the case of `CCOc1ccc(C2C=C(c3ccc(F)cc3)Nc3ncnn32)cc1` (stereo not drawn) it was -1.34. In the case of `CCc1ccc(NC(=O)CS(=O)CC(=O)NCCCc2ccccc2)cc1` (stereo not drawn) it was -0.695. `CCCCCOc1ccc(NC(=O)C(=O)NCCC2=CCCCC2)cc1` showed a z-score of -0.0173. In the case of `COC(=O)C1=C(C)N=C2SC(C#N)=C(N)N2C1c1cc(OC)c(OC)c(OC)c1` (stereo not drawn) it was -0.0707. Under `CCOC(=O)c1sc(C)c2c1NC1(CCCCCC1)NC2=O` stands 0.0807; under `CCOC(=O)C(C)Oc1cccc2c(=O)n(CC(=O)NCc3ccco3)ccc12` (stereo not drawn), 1.28; under `COc1ccc2sc(N3C(=O)CC(Cc4cccc(C)c4)C3=O)nc2c1` (stereo not drawn), -0.0213. As for `Cc1ccc(S(=O)(=O)n2cnc3ccccc32)c(C)c1`, the z-score was -0.214. In the case of `Cc1cccc(Nc2n[nH]c(=S)s2)c1C` it was -0.0559; in that of `CC(Oc1cccc(F)c1)C(=O)/C=C\N(C)C` (stereo not drawn), -0.0867. In the case of `Cc1ccc(NC(=O)c2ccc(OC(=S)N3CCOCC3)cc2)cc1` it was -0.252. Molecule `c1ccc(Cn2ccnc2SCc2nnc(-c3ccccc3)o2)cc1` displayed a z-score of 0.735. In the case of `O=S(=O)(NC1CCCC1)c1cccc(S(=O)(=O)N2CCC(n3nnc4ccccc43)CC2)c1` it was 0.212; in that of `Cc1ccc2nsnc2c1S(=O)(=O)N(Cc1cc2cccc(C)c2[nH]c1=O)CC1CCCO1` (stereo not drawn), 0.0318; in that of `CN(Cc1ccccc1)S(=O)(=O)c1ccc2[nH]cc(C(=O)NCC3CCCO3)c(=O)c2c1` (stereo not drawn), 0.0786.

`O=C(NNC(=O)c1cc(-c2ccccc2)n(-c2ccccc2)n1)c1cccc([N+](=O)[O-])c1`: the z-score is active: 6.49.

`COc1ccc(-c2c(C#N)c(N)nc3sc(C(=O)c4ccc(C)cc4)c(N)c23)cc1` came in with a z-score of -0.27. As to `Cc1ccc(-c2noc(CCC(=O)NC3CCN(Cc4ccccc4)CC3)n2)cc1`, the z-score worked out at 2.02. The molecule `COc1ccc(OC)c(NC(=O)c2cc3n(n2)C(C(F)(F)F)CC(c2ccc4c(c2)OCO4)N3)c1` (stereo not drawn) yielded a z-score of -0.557.

The molecule `Cc1ccc(S(=O)(=O)N2CCN(C(=O)COc3ccc(-c4nnco4)cc3)CC2)cc1` showed a z-score of 1.66. With `CC1CCCN(c2c([N+](=O)[O-])c(=O)oc3ccccc23)C1` (stereo not drawn), the z-score was -0.991.

Take `Cc1nnc(N(Cc2ccco2)C(=O)c2cccc(C#N)c2)s1`: the z-score is -0.293. In the case of `Cc1cc(C)nc(Sc2ccc([N+](=O)[O-])cc2[N+](=O)[O-])n1` it was 0.0784.

In turn, `N#CCCNC(=O)CCN1CCOCC1` showed a z-score of 0.396. The molecule `Cc1ccc(Oc2ccc(S(=O)(=O)N3CCOCC3)cc2C(N)=O)c(-n2nc3ccccc3n2)c1` returned a z-score of 0.0127.

As for `O=C(Nc1ccccc1)ON=C1CCCC1`, the z-score was 0.427. Consider `COc1ccc(NCN2C(=O)CCC2=O)cc1`, for which the z-score was -0.415. In turn, `COc1ccc2c(c1)cc(C)c1nnc(SCC(=O)N(C)c3nc(-c4ccccc4)cs3)n12` returned a z-score of -0.134. Under `c1ccc(C(c2ccccc2)N2CCN(Cc3nnnn3C3CCCCC3)CC2)cc1` stands 0.164; under `CCN(CC)C(=O)Oc1ccccc1NC(C)=O`, -0.282; under `CC(=O)Nc1cc(S(=O)(=O)Nc2cccc(C)c2)c(C)cc1C`, -0.268.

Consider `Cc1cccc(CNCc2ccccc2)c1`, for which the z-score was 0.308.
